Data as given in the supplement of paper PMC3334620.
Whole data set: some 33,000 sequences, median “E-score (-0.5 to 0.5)” near -0.032, cut for the highest 2% near 0.36. Some of the results follow.

Target: T1, Sko1 (UniProt Q02100)
T1 sequence: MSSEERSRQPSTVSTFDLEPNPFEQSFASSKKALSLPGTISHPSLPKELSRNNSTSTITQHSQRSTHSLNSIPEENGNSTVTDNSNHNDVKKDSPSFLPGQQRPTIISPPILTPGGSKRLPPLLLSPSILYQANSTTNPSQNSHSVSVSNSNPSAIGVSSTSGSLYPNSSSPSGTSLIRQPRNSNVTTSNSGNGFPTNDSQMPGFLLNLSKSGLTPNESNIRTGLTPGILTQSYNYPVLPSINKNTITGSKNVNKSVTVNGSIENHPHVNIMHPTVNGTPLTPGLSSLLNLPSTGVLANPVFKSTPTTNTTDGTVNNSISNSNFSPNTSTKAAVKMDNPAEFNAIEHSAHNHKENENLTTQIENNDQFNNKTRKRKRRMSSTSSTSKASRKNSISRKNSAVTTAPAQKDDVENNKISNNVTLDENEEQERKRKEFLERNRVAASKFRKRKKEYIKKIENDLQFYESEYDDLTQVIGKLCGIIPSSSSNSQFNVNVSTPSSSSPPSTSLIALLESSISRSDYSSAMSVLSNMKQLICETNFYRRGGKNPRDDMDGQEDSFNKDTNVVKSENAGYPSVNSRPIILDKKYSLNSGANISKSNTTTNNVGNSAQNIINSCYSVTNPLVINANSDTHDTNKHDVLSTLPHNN
Experiment: PBM E-score (8-mer binding enrichment) (E-score (-0.5 to 0.5)); higher = stronger / more preferred TF binding; most listed sequences are background and not binding sites
Details: protein concentration: 200 nM; construct: GST-full length
Method in brief: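 Masliner-normalised scans of fluorescent anti-GST signal were the basis for scoring. That signal came from GST-tagged yeast transcription factors applied at about 100-200 nM to double-stranded universal all-10-mer Agilent arrays on fresh or once-stripped slides. Each ungapped eight-base word, pooled with its reverse complement, received an E-score from the Universal PBM Analysis Suite.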

Going from GTGGCCCA to ATCCCTCG, the “PBM E-score” value falls from -0.00529 to -0.185.

Compared with CGTGATAA, GAGGCCAC is lower in “PBM E-score” value: 0.265 for the first, -0.154 for the second.

First: AGTTCACC
Second: GTTTGGTA
The “PBM E-score” value of the first is lower: 0.0342 for the first, 0.194 for the second.

Going from CCTCACAG to ATTCTTCG, the “PBM E-score” value rises from -0.175 to 0.153.

First: CTGCATAA
Second: AAAGCCTT
The “PBM E-score” value of the first is higher: 0.103 for the first, -0.142 for the second.

Compared with CAATGATA, ATTCGATG is lower in “PBM E-score” value: 0.254 for the first, 0.146 for the second.

Going from ATCGCTCA to ATTTGAGC, the “PBM E-score” value falls from -0.0309 to -0.0412.

First: ACAGCCCA
Second: CATAGGTA
The “PBM E-score” value of the first is lower: -0.122 for the first, 0.0645 for the second.

Compared with ATGACATA, CGATGCAA is lower in “PBM E-score” value: 0.437 for the first, -0.124 for the second.

Compared with CCGACCGG, AGTGTGCA is higher in “PBM E-score” value: -0.294 for the first, 0.0184 for the second.

First: CAAGACGA
Second: CTGGCGGC
The “PBM E-score” value of the first is higher: 0.0816 for the first, -0.221 for the second.

Compared with ACGTTGAT, GTAGCGTA is lower in “PBM E-score” value: 0.317 for the first, 0.169 for the second.

First: TCAATGGA
Second: ATACTTTG
The “PBM E-score” value of the first is lower: -0.142 for the first, 0.142 for the second.

First: GGTCGTGA
Second: GAGAACCC
The “PBM E-score” value of the first is higher: 0.0516 for the first, -0.328 for the second.

Going from AGATGCAG to AATTATCT, the “PBM E-score” value rises from -0.178 to 0.173.

Compared with CTCTTATA, CAGTGCAC is lower in “PBM E-score” value: 0.0925 for the first, -0.236 for the second.

Compared with GACCCCAC, ACCTGACC is lower in “PBM E-score” value: -0.026 for the first, -0.165 for the second.

Compared with AAAAACAC, AAATTGTG is lower in “PBM E-score” value: 0.164 for the first, 0.0504 for the second.

Going from AAGGCTGA to AAGAACAC, the “PBM E-score” value rises from -0.125 to 0.224.

Compared with CTGGTTTC, ACCGAACT is higher in “PBM E-score” value: -0.196 for the first, -0.136 for the second.

First: AGCACAAC
Second: CCGCGCAC
The “PBM E-score” value of the first is higher: 0.122 for the first, -0.136 for the second.

First: AATCAAAA
Second: GAGGCAGA
The “PBM E-score” value of the first is higher: 0.0919 for the first, -0.283 for the second.

First: CCCGCCGG
Second: CAATTAAC
The “PBM E-score” value of the first is lower: -0.222 for the first, 0.0907 for the second.

Compared with ACGTAGTC, ACGCAGCC is lower in “PBM E-score” value: 0.425 for the first, 0.0962 for the second.

Compared with AAATTAGT, AAAAGCCG is lower in “PBM E-score” value: 0.174 for the first, -0.231 for the second.

Going from CCAGTGCC to ATTTTGCA, the “PBM E-score” value rises from -0.172 to 0.137.

Going from AGCCGTAT to GACCGGCC, the “PBM E-score” value falls from -0.0778 to -0.34.

First: CCTATAAA
Second: CGGGAAAA
The “PBM E-score” value of the first is higher: 0.0293 for the first, -0.0548 for the second.

Compared with GCCGGCGA, GACAACAA is higher in “PBM E-score” value: -0.419 for the first, 0.108 for the second.

Going from AGCGGAAG to AGAGATAT, the “PBM E-score” value rises from -0.122 to 0.075.

Compared with AATTTTCC, GAGTGCAC is lower in “PBM E-score” value: 0.13 for the first, -0.169 for the second.

Compared with AGTGAAGA, GGGAGCCC is lower in “PBM E-score” value: -0.112 for the first, -0.357 for the second.

Compared with AACATTTA, AGCCATGA is lower in “PBM E-score” value: 0.225 for the first, 0.0965 for the second.

Compared with CAGATTAG, AAAGAACA is higher in “PBM E-score” value: -0.121 for the first, 0.191 for the second.

Going from CTGTTGTA to TAACTTCA, the “PBM E-score” value rises from 0.0314 to 0.0809.

Going from GATGTCGC to CTCATACC, the “PBM E-score” value falls from 0.129 to 0.0267.

Going from GATTGGGA to CTGGTGGC, the “PBM E-score” value falls from -0.113 to -0.195.

Going from CGCTAGTA to AATCTCAG, the “PBM E-score” value falls from -0.0338 to -0.0427.

Compared with GCTTCACA, ACTTCTTG is higher in “PBM E-score” value: -0.172 for the first, 0.0423 for the second.

First: GCTCAAAC
Second: GCGAGCAC
The “PBM E-score” value of the first is higher: -0.0717 for the first, -0.0809 for the second.

Compared with ATTATGAA, AGTCGCAT is lower in “PBM E-score” value: 0.208 for the first, -0.0629 for the second.

First: CGTTTTCA
Second: GTGTTCGA
The “PBM E-score” value of the first is higher: 0.194 for the first, 0.101 for the second.

Compared with AAACGTCC, CCGCCCCG is lower in “PBM E-score” value: 0.13 for the first, -0.0978 for the second.
